{
  "source": "PubChem BioAssay AID1259400",
  "about": "(National Center for Advancing Translational Sciences (NCATS), 2018)",
  "note": "The campaign covered roughly 350,000 compounds. About 2,100 (0.6%) were called active. The shares of active, inactive and inconclusive entries below differ from those in the screen.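 How the source made its calls: active means activity change of -60% or lower, but not beyond a set lower limit; inconclusive means change between -60% and -40%, or beyond the set limit; inactive means change above -40%.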 Where a structure was tested more than once in an assay, its records may differ in their call. On the % scale 0 is the no-effect control and ±100 the full control effect.",
  "data": [
    {"target": "Relaxin receptor 1 (Homo sapiens) (UniProt Q9HBX9)", "sequence (Q9HBX9 whole entry, looked up)": "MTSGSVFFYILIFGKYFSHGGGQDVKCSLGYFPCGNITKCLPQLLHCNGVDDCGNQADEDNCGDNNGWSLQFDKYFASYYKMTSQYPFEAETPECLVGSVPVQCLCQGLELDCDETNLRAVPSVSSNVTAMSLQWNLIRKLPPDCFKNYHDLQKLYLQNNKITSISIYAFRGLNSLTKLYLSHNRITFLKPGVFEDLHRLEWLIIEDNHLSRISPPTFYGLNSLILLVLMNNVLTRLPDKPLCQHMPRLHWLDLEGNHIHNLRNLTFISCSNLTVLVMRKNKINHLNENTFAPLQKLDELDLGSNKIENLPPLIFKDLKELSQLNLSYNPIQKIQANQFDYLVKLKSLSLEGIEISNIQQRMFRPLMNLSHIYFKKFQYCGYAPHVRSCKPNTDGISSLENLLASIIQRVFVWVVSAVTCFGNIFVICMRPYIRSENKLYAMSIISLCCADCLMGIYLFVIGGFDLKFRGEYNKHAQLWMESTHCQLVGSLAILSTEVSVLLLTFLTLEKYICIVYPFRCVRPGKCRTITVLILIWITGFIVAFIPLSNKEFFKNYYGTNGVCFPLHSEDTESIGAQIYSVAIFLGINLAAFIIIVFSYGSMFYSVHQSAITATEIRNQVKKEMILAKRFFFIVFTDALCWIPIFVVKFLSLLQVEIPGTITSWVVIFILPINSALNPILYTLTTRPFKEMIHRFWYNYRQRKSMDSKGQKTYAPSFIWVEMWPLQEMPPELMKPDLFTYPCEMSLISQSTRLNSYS", "test": "qHTS Assay for Antagonists of the Relaxin Receptor RXFP1", "settings": "HEK293-RXFP1, relaxin-stimulated cAMP HTRF, 30 min; at 57.5 µM; active compounds read low", "values": [
      {"smiles": "O=C(NCc1ccco1)c1ccc(Cn2c(=S)[nH]c3ccccc3c2=O)cc1", "activity change, negative = inhibition": "inconclusive: -55.4%"},
      {"smiles": "O=C(/C(=N\\Nc1ccc([N+](=O)[O-])cc1)Sc1nnnn1-c1ccccc1)c1ccccc1", "activity change, negative = inhibition": "inactive: -7.49%"},
      {"smiles": "Cc1cccc2sc(N(CCCN(C)C)C(=O)c3ccc(Cl)s3)nc12", "activity change, negative = inhibition": "inconclusive: -49.4%"},
      {"smiles": "Cc1cc(C(=O)OCC(=O)Nc2cccc(S(=O)(=O)N(C)C)c2)c2ccccc2n1", "activity change, negative = inhibition": "inconclusive: -45.8%"},
      {"smiles": "CCC(=O)N1c2ccccc2CC1C(=O)NCCN1CCN(c2cccc(C(F)(F)F)c2)CC1", "note": "(centres undefined)", "activity change, negative = inhibition": "inactive: -6.4%"},
      {"smiles": "Cc1cc(Cl)ccc1C(=O)C1CCCN(C(=O)c2nonc2C)C1", "note": "(centres undefined)", "activity change, negative = inhibition": "inconclusive: -45.7%"},
      {"smiles": "Cc1ccc(-n2nc(CO)c(C(=O)NC(C)CCCc3ccccc3)n2)cc1C", "note": "(centres undefined)", "activity change, negative = inhibition": "inconclusive: -56%"},
      {"smiles": "COc1ccc2cc(OCC(=O)NNC(=O)Nc3ccc(C(C)=O)cc3)ccc2c1", "activity change, negative = inhibition": "inconclusive: -41.1%"},
      {"smiles": "Cc1ccc(C(=O)Nc2cccc(O)c2)cc1S(=O)(=O)N1CCCCCC1", "activity change, negative = inhibition": "active: -82.8%"},
      {"smiles": "CNC(=O)/C(C#N)=C/c1cccc(Oc2ccccc2)c1", "activity change, negative = inhibition": "inconclusive: -58.8%"},
      {"smiles": "C=C(C)COc1ccc(-c2[nH]ncc2-c2ccc(OC)cc2)c(O)c1", "activity change, negative = inhibition": "active: -63.9%"},
      {"smiles": "Cc1ccc(-n2cc(-c3ccccc3)nc2S(=O)(=O)CC(=O)Nc2ccc(F)cc2)cc1", "activity change, negative = inhibition": "inconclusive: -47.2%"},
      {"smiles": "Fc1ccc(C(NCCc2ccc(Cl)cc2)c2nnc(-c3ccccc3)o2)c(Cl)c1", "note": "(centres undefined)", "activity change, negative = inhibition": "inconclusive: -45.7%"},
      {"smiles": "COc1cc2c(cc1OC)C(Cc1ccc(O)cc1)N(C)CC2", "note": "(centres undefined)", "activity change, negative = inhibition": "inactive: -6.83%"},
      {"smiles": "O=S(=O)(NCc1nc2cccnc2n1Cc1ccccc1)c1ccc2c(c1)CCCC2", "activity change, negative = inhibition": "inactive: -12.2%"},
      {"smiles": "CC(C)CC1NC(=O)N(CC(=O)N2CCCc3ccccc32)C1=O", "note": "(centres undefined)", "activity change, negative = inhibition": "inconclusive: -52.5%"},
      {"smiles": "CCOC(=O)c1sc(=S)n(-c2ccccc2)c1C", "activity change, negative = inhibition": "inconclusive: -46.7%"},
      {"smiles": "COCCNC(=S)Nc1ccc2[nH]c(=O)[nH]c2c1", "activity change, negative = inhibition": "inactive: 2.07%"},
      {"smiles": "Clc1cccc(CNCCCSc2ncccn2)c1Cl", "activity change, negative = inhibition": "inactive: 3.23%"},
      {"smiles": "O=c1oc(-c2cccs2)nc2ccc(Br)cc12", "activity change, negative = inhibition": "inactive: -3.61%"},
      {"smiles": "CC(=O)c1cccc(Nc2nc(-c3sc(C)nc3C)cs2)c1", "activity change, negative = inhibition": "inconclusive: -60%"},
      {"smiles": "COc1ccccc1N1CCN(C(=O)CCCCCn2c(=S)[nH]c3cc4c(cc3c2=O)OCO4)CC1", "activity change, negative = inhibition": "active: -78.2%"},
      {"smiles": "COc1ccc(C(=O)C2CCCN(Cc3cccn3-c3ccc(Cl)cn3)C2)c(OC)c1", "note": "(centres undefined)", "activity change, negative = inhibition": "inconclusive: -46.7%"},
      {"smiles": "Cn1cnc([N+](=O)[O-])c1S(=O)(=O)Oc1ccccc1", "activity change, negative = inhibition": "inconclusive: -45.3%"},
      {"smiles": "NS(=O)(=O)c1ccc(CCNC(=O)COC(=O)/C=C/c2cc(Br)ccc2F)cc1", "activity change, negative = inhibition": "inconclusive: -45.8%"},
      {"smiles": "CCOc1ccc(-c2c(C(=O)N/N=C/c3ccc(Cl)cc3)nnn2-c2nonc2N)cc1", "activity change, negative = inhibition": "inconclusive: -41.7%"},
      {"smiles": "COc1cc2sc(C)nc2c2ccccc12", "activity change, negative = inhibition": "inactive: 8.55%"},
      {"smiles": "CCn1c(SCC(=O)N2CCOCC2)nc2ccccc21", "activity change, negative = inhibition": "inconclusive: -40.5%"},
      {"smiles": "Cc1ccc(NC2=NCC(=O)N2C2CCCC2)cc1C", "activity change, negative = inhibition": "active: -68.9%"},
      {"smiles": "CC(Oc1ccccc1)C(=O)Nc1nnc(C2CCCCC2)s1", "note": "(centres undefined)", "activity change, negative = inhibition": "inconclusive: -44.2%"},
      {"smiles": "O=C(CNc1cccc2ccccc12)N/N=C/c1ccc[nH]1", "activity change, negative = inhibition": "inconclusive: -41.4%"},
      {"smiles": "CCS(=O)(=O)c1ncc(Cl)c(C(=O)Nc2ccc(S(=O)(=O)N3CCCC(C)C3)cc2)n1", "note": "(centres undefined)", "activity change, negative = inhibition": "active: -119%"},
      {"smiles": "O=C(CN1C(=O)S/C(=C\\c2ccc(O)cc2)C1=O)c1ccccc1", "activity change, negative = inhibition": "inconclusive: -41.3%"},
      {"smiles": "COc1ccc2[nH]c3c(N4CCc5ccccc5C4)ncnc3c2c1", "activity change, negative = inhibition": "inconclusive: -55.5%"},
      {"smiles": "Cc1nn2c(C)c(C(=O)NCc3ccco3)cnc2c1-c1ccccc1", "activity change, negative = inhibition": "inconclusive: -40.9%"},
      {"smiles": "Cc1ccc2nc(-c3ccc(NS(=O)(=O)c4ccccc4)cc3)sc2c1", "activity change, negative = inhibition": "inconclusive: -44.4%"},
      {"smiles": "COc1cccc(OC)c1C(=O)Nc1ccc2c(c1)Cc1ccccc1-2", "activity change, negative = inhibition": "inactive: -20.7%"},
      {"smiles": "O=C(NC1CCCCC1)C(c1ccncc1)N(Cc1ccc2c(c1)OCO2)C(=O)c1cnsn1", "note": "(centres undefined)", "activity change, negative = inhibition": "inactive: -12.2%"},
      {"smiles": "FC(F)(F)C(F)(F)c1nc2nc(Cl)c(Cl)nc2[nH]1", "activity change, negative = inhibition": "inactive: -8.1%"},
      {"smiles": "Cc1cc(C(=O)CSc2nncs2)c(C)n1Cc1ccco1", "activity change, negative = inhibition": "inconclusive: -48.3%"},
      {"smiles": "Cc1cccc(S(=O)(=O)CC(=O)Nc2nc(-c3ccccc3)cs2)c1", "activity change, negative = inhibition": "inconclusive: -43.4%"},
      {"smiles": "Cc1cccc(OCC(=O)N(Cc2ccc(C(C)(C)C)cc2)Cc2ccco2)c1", "activity change, negative = inhibition": "active: -74.8%"},
      {"smiles": "CC(=O)N1CCN(c2ccc(NC(=O)c3cccc(Cl)c3Cl)cc2)CC1", "activity change, negative = inhibition": "inactive: 2.44%"},
      {"smiles": "CC(=O)c1ccc(N2CCN(C(=O)c3ccc(Cn4c(=S)[nH]c5ccc(N6CCOCC6)cc5c4=O)cc3)CC2)cc1", "activity change, negative = inhibition": "inconclusive: -53.6%"},
      {"smiles": "O=C(C=Cc1ccccc1)CC(c1ccccc1)N1CCOCC1", "note": "(centres undefined)", "activity change, negative = inhibition": "inconclusive: -44.3%"},
      {"smiles": "CN(C(=O)c1cc(S(=O)(=O)N2CCc3ccccc32)cn1C)C1CCCCC1", "activity change, negative = inhibition": "active: -103%"},
      {"smiles": "Cc1ccc(C(=O)NNC(=O)c2ccc(S(=O)(=O)N3CCCCC3)cc2)cc1", "activity change, negative = inhibition": "inconclusive: -59.6%"},
      {"smiles": "Cc1ccc(-c2nnn(CC(=O)N(CCN3CCOCC3)C(C(=O)NC(C)(C)C)c3ccc(C)o3)n2)cc1", "note": "(centres undefined)", "activity change, negative = inhibition": "inactive: -7.76%"},
      {"smiles": "C=CCOc1ccc(C(c2c(O)nc(SC)[nH]c2=O)c2c(O)nc(SC)[nH]c2=O)cc1", "activity change, negative = inhibition": "inconclusive: -49.8%"},
      {"smiles": "COc1ccc(Cn2cc(C(=O)c3ccc(OC)cc3)c(=O)c3cc4c(cc32)OCCO4)cc1", "activity change, negative = inhibition": "inconclusive: -42.3%"},
      {"smiles": "Cc1ccc2c(c1)C(c1ccccc1)N(C(=O)c1ccc(OC(C)C)cc1)CC(=O)N2", "note": "(centres undefined)", "activity change, negative = inhibition": "inactive: -31.3%"},
      {"smiles": "Cc1ccccc1C(=O)N1CCN(c2ccc(NC(=O)c3ccc4c(c3)OCO4)cc2)CC1", "activity change, negative = inhibition": "inconclusive: -53.2%"},
      {"smiles": "CCc1nc(SCC(=O)c2ccccc2)c2c(=O)n(C)c(=O)n(C)c2n1", "activity change, negative = inhibition": "inconclusive: -45%"},
      {"smiles": "CCN(CC)CC(O)Cn1c(C)c(-c2ccccc2)c2cc([N+](=O)[O-])ccc21", "note": "(centres undefined)", "activity change, negative = inhibition": "active: -89.4%"}
    ]}
  ]
}
